Substitutions are numbered along the chain they refer to.

Assay [1] addresses T1, Human nectin-4 ECD-6His (TNT-175) (human, UniProt Q96NY8 32-349).
T1 construct: the entry holds the extracellular domain with the C-terminal 6His tag
T1 sequence: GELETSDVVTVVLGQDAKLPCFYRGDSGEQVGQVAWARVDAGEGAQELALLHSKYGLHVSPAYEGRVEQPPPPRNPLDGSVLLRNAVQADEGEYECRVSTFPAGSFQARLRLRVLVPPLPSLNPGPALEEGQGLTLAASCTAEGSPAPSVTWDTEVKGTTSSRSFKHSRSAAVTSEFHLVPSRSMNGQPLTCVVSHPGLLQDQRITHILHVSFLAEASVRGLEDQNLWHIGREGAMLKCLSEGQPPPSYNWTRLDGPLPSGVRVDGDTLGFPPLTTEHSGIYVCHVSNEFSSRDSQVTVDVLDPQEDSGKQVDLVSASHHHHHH
As to the kind of experiment: SPR Biacore 8K, mAb on protein A. As for the experimental part:
(§1) The running buffer was 10 mM HEPES, pH 7.4, 150 mM NaCl, 3 mM EDTA, 0.05% (v/v) Surfactant P20 (HBS-EP+). […] The nectin-4 analytes were injected in either single-cycle kinetics or multi-cycle kinetics mode at nominal starting concentrations of 300 nM or 900 nM with 3-fold serial dilutions. Association times were monitored for 120 s, and dissociation times were monitored 1800 s at 30 μL/min flow rate. The surfaces were regenerated with 10 mM glycine at pH1.7 or 75 mM phosphoric acid at pH1.6 for two pulses of 15 s at 30 μL/min flow rate.
(§2) The data were processed and analyzed with Biacore 8K Evaluation Software Version 3.0.12.15655 (Cytiva, Global Life Sciences Solutions USA LLC, Marlborough, MA). […] The responses from the nearest buffer blank injection were then subtracted from the reference subtracted data (2-1) to yield double-referenced data. These double-reference data were fit to a simple 1:1 Langmuir binding model with mass transport to determine the apparent association (ka) and dissociation rate constants (kd). The apparent equilibrium dissociation constant or affinity constant was then calculated based on their ratio as (KD=kd/ka).

The target in assay [2] is T2, Cyno nectin-4 ECD-6His (TNT-255) (cynomolgus, UniProt Q96NY8 32-349 (human entry)).
T2 construct: entry includes the 6His tag
T2 chain: T1 sequence with V39A, I230V
The assay can be described thus: SPR Biacore 8K, mAb on protein A. As for the experimental part:
as §1, §2

In assay [3] the target is T3, Mouse nectin-4 ECD-6His (TNT-250) (mouse, UniProt Q8R007 31-347).
T3 construct: entry includes the 6His tag; also called mouse nectin-4-LCD
T3 sequence: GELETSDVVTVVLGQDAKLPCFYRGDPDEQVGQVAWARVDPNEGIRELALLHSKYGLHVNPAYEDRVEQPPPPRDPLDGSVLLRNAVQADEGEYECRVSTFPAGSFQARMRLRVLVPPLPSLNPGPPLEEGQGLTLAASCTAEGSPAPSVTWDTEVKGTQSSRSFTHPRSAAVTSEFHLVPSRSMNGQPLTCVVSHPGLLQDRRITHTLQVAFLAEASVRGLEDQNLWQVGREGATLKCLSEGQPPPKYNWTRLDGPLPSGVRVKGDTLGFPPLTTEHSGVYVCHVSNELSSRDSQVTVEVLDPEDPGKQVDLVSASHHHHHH
The assay can be described thus: SPR Biacore 8K, mAb on protein A. As to the method: as §1, §2

Assay [4] concerns the target T4, Human nectin-4-IgV-6His (TNT-252) (human, UniProt Q96NY8 32-147).
T4 construct: entry includes the 6His tag
T4 sequence: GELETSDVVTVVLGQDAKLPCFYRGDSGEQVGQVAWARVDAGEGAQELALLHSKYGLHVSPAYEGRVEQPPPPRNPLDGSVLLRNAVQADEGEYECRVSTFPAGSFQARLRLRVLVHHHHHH
The assay can be described thus: SPR Biacore 8K, mAb on protein A. As for the experimental part:
as §1, §2

For assay [5], the target named is T1, Human nectin-4 ECD-6His (TNT-175). As to the kind of experiment: SPR Biacore 8K. As for the experimental part: (§3) Further testing of select nectin-4 antibodies to human, mouse and cyno nectin-4. Additional assessment of the nectin-4 antibodies was performed to measure binding to human, mouse, and cynomolgus nectin-4. Biacore 8K (Cytiva, Marlborough, MA) was used to further characterize binding of four of the nectin-4 monoclonal antibodies.
(§4) All experiments were performed at 25° C. temperature and in HBS-EP+ run buffer (10 mM HEPES, pH 7.4, 150 mM NaCl, 3 mM EDTA, 0.05% Tween-20). The antibodies were captured or immobilized on a Biacore chip either through amine-coupling method on a CM5 or captured by ProteinA chip or captured by anti-mouse polyclonal antibody or anti-human polyclonal antibody. […] The data were processed and analyzed in Biacore Insight Evaluation Software using double-reference subtraction of the data and then fitted to a simple Langmuir binding model using global kinetic rate constants for association (Kₐ), dissociation (Kd), and Rₘₐₓ values per sample. Fit quality was determined by inspection of the residuals and of statistical T values and the equilibrium dissociation (or affinity) constant was deduced by the ratio of the kinetic rate constants. KD=Kd/Kₐ.

The target of assay [6] is T2, Cyno nectin-4 ECD-6His (TNT-255). As to the kind of experiment: SPR Biacore 8K. As for the experimental part:
as §3, §4

Assay [7] addresses T3, Mouse nectin-4 ECD-6His (TNT-250). As to the kind of experiment: SPR Biacore 8K. As for the experimental part: as §3, §4
Assay [8] concerns the target T4, Human nectin-4-IgV-6His (TNT-252). The assay can be described thus: SPR Biacore 8K. As to the method: as §3, §4

B1: TNT-206 (antibody, human IgG1, kappa)
heavy: QVQLQESGPGLVKPSGTLSLTCTVSGGSISSGGYYWAWIRQPPGKGLEWIGSIYYTGSTYYNPSLKSRVTIYVDTSKNQFSLKLSSVTAADTAVYYCARDPFPEPPDAFDIWGQGTMVTVSSASTKGPSVFPLAPSSKSTSGGTAALGCLVKDYFPEPVTVSWNSGALTSGVHTFPAVLQSSGLYSLSSVVTVPSSSLGTQTYICNVNHKPSNTKVDKKV[letters of human IgG1 Fc and a few adjoining residues left out]
light: EIVLTQSPATLSVSPGERATLS[letters of about 80 residues left out][letters of about 120 residues left out]
As to B1, the Kd in assay [1] came out at 17.7 nM; in assay [2], 23.5 nM; in assay [3], 18.7 nM; in assay [4], 18.7 nM.

B2: TNT-209 (antibody, human IgG1, kappa)
heavy: EVQLVESGGGLVQPGGSLRLSCAASGFTFSDYYMSWIRQAPGKGLEWVSGISWNSGSIGYADSVKGRFTISRDNSKNTLYLQMNSLRAEDTAVYYCASSGSWYLPLDYWGQGTLVTVSSASTKGPSVFPLAPSSKSTSGGTAALGCLVKDYFPEPVTVSWNSGALTSGVHTFPAVLQSSGLYSLSSVVTVPSSSLGTQTYICNVNHKPSNTKVDKKV[letters of human IgG1 Fc and a few adjoining residues left out]
light: DIQMTQSPSSLSASVGDRVTITCQASQDISNYLNWYQQKPGKVPKLLIYAASTLQSGVPSRFSGSGSGTDFTLTISSLQPEDFATYYCQQSYSTPLTFGGGTKVEIKRTVAAPSVFIFPPSDEQLKSGTASVVCLLNNFYPREAKVQWKVDNALQSGNSQESVTEQDSKDSTYSLSSTLTLSKADYEKHKVYACEVTHQGLSSPVTKSFNRGEC
For B2, the dissociation constant Kd was determined as 17.5 nM in assay [1], 55 nM in assay [2], 331 nM in assay [3] and 28.9 nM in assay [4].

B3: TNT-210 (antibody, human IgG1, kappa)
heavy: EVQLVQSGGGVVQPGRSLRLSCAASGFTFSSYAMHWVRQAPGKGLEWVAVISYDGSNKYYADSVKGRFTISRDNSKNTLYLQMNSLRAEDTAVYYCARATLQLWLPLFDYWGQGTLVTVSSASTKGPSVFPLAPSSKSTSGGTAALGCLVKDYFPEPVTVSWNSGALTSGVHTFPAVLQSSGLYSLSSVVTVPSSSLGTQTYICNVNHKPSNTKVDKKV[letters of human IgG1 Fc and a few adjoining residues left out]
light: [letters of about 200 residues left out]
For B3, the Kd in assay [5] was 12 nM; in assay [6], 36 nM; in assay [7], 12 nM; in assay [8], 17 nM; in assay [1], 13.3 nM; in assay [2], 36.7 nM. In addition, the figures for the Kd in assay [3] and in assay [4] were 15 nM and 17.5 nM, respectively.

B4: TNT-204 (antibody, human IgG1, kappa)
heavy: EVQLLESGGGVVQPGRSLRLSCAASGFTFSSYGMHWVRQAPGKGLEWVAVISYDGSNKYYADSVKGRFTISRDNSKNTLYLQMNSLRAEDTAVYYCAKSSYYDYVWGSYRYTDAFDIWGQGTMVTVSSASTKGPSVFPLAPSSKSTSGGTAALGCLVKDYFPEPVTVSWNSGALTSGVHTFPAVLQSSGLYSLSSVVTVPSSSLGTQTYICNVNHKPSNTKVDKKV[letters of human IgG1 Fc and a few adjoining residues left out]
light: EIVLTQSPATLSLSPGERATLSCRASQSVSSSYLAWYQQKPGQAPRLLIYGASSRATGIPDRFSGSGSGTDFTLTISRLEPEDFAVYYCQQYNNWWTFGQGTKVDIKRTVAAPSVFIFPPSDEQLKSGTASVVCLLNNFYPREAKVQWKVDNALQSGNSQESVTEQDSKDSTYSLSSTLTLSKADYEKHKVYACEVTHQGLSSPVTKSFNRGEC
As for B4, the Kd in assay [1] worked out at 2.08 nM; in assay [2], 10.2 nM; in assay [3], 4.34 nM; in assay [4], 6.82 nM.

Source of the values: patent US20240382610A1 (TALLAC THERAPEUTICS, published 2024).
